Assay results as given in PubChem BioAssay AID463173 (ICCB-Longwood Screening Facility, Harvard Medical School, 2010).
About 4,300 (8.3%) of roughly 52,000 compounds were called active. Rule as the data show it: active = survival mostly below about 52% (no sharp cut-off); inactive = mostly above about 56%. The list shows a part of the results.

These molecules were tested on DeltatarO mutant (assay: growth inhibition of S. aureus wild type versus tarO mutant, primary screen, teichoic acid synthesis inhibitors, RN4220, OD600 (AID 463173)). Conditions: OD600, 18 h, active compounds read low, screened at 18.75 µg/mL (by protocol).

Compound | survival
Cc1ccc(N(C(=O)COc2ccccc2C)S(=O)(=O)c2ccc(Cl)cc2)cc1 | inactive: 67%
O=C(CCn1c(=O)c2cccn2c2ccc(F)cc21)NCCc1ccccc1 | active: 42%
C/C(Cc1nc2ccccc2[nH]1)=N/Nc1ccccc1 | active: 2%
CCCc1cc(C(=O)Nc2c(C)nn(Cc3ccc(C)cc3)c2C)no1 | inactive: 73%
Cc1ccc(C)c(Nc2cc(C(=O)NC3CCCCC3)c3ccccc3n2)c1 | inactive: 87%
CCC(=O)N1CCc2cc(CNC(=O)C(CC)c3ccccc3)ccc21 (stereo not given) | inactive: 92%
COC(=O)c1ccc(Cl)cc1NC(=O)NCc1c(-n2cccc2)sc2c1CCCC2 | inactive: 78%
CCOc1ccc(C(=O)Nc2ccc(C(=O)OCc3cc(=O)n4ccsc4n3)cc2)cc1 | inactive: 94%
CCOC(=O)c1ccc(NC(=O)c2csc3c2CCCC3)cc1 | active: 36%
O=C(Nc1cccc2cccnc12)c1cccc2ccccc12 | active: 1%
COc1cccc(N2CCN(C(=O)c3cc4c(=O)n(Cc5cccs5)ccc4nc3C)CC2)c1 | inactive: 69%
Cc1ccc(CNC(=O)Cn2ncc3c([nH]c4ccc(C)cc43)c2=O)cc1 | inactive: 88%
Fc1ccc(N=C(CN2CCCCC2)N2CCCCC2)cc1 | inactive: 80%
CCn1c(CN2CCCCC2)nc2cc(NC(=O)c3ccccc3[N+](=O)[O-])ccc21 | inactive: 91%
CSc1ncc(C(=O)NCc2ccc(Cl)cc2)c(C(F)(F)F)n1 | inactive: 102%
Cc1nn(-c2ccccc2)c(OC(=O)c2ccc(F)cc2)c1S(=O)(=O)c1ccccc1 | inactive: 80%
Cc1ccc(NC(=O)c2c(C(=O)Nc3ccccc3)sc3nc(C)cc(=O)n23)c(C)c1 | inactive: 52%
CCN(C(=O)CCNC(=O)Cn1cnc2ccccc2c1=O)c1cccc(Cl)c1 | inactive: 67%
COc1ccc(C2=C(C)C(N3CCC(C(=O)Nc4cc(C)ccc4C)CC3)=NS2(=O)=O)cc1 | inactive: 79%
CCCn1cc(S(=O)(=O)c2ccc(C)cc2)c(=O)c2cc(OC)c(OC)cc21 | inactive: 81%
COc1cccc(NC(=O)C(=O)NCCc2csc(-c3ccc(C)cc3)n2)c1 | inactive: 89%
COc1ccc(N2CCN(S(=O)(=O)CCNC(=O)COc3cccc(OC)c3)CC2)cc1 | inactive: 90%
CCCSc1ncc(Cl)c(C(=O)Nc2c(C(=O)Nc3ccccc3)oc3ccccc23)n1 | inactive: 61%

Compound | survival
Cc1cccc(Cn2c(SCc3ccc(C(=O)N4CCC(C)CC4)cc3)nc3ccncc32)c1 | inactive: 55%
N#CCSc1cccc2cccnc12 | inactive: 83%
CCn1c(CC(=O)Nc2ccccc2)n[nH]c1=S | inactive: 80%
COc1ccc(CCNC(=O)c2ccc(-n3c(C)cc4c3CCCC4)cc2)cc1OC | inactive: 74%
CCCc1cc(=O)[nH]c(SCc2nc(-c3ccc(C)cc3)no2)n1 | inactive: 78%
COc1ccccc1CCNC(=O)Cc1c(C)c2cc3c(C(C)(C)C)coc3c(C)c2oc1=O | inactive: 101%
Nc1cc(N)nc(SCc2noc(-c3ccc(Cl)cc3)n2)n1 | inactive: 86%
CC1Oc2ccccc2N(CC(=O)Nc2ccccc2F)C1=O (stereo not given) | inactive: 110%
Cc1cccc(NC(=O)Cn2cnc(S(=O)(=O)N3CCCC3)c2)c1C | inactive: 71%
Cc1cc(C)c2c(n1)nn1c(C)c(CCC(=O)NCc3ccccc3Cl)c(C)nc21 | inactive: 82%
CCOc1ccc(-c2cc3nc(C4CCN(C(=O)OC(C)(C)C)CC4)c(C(=O)Nc4ccc(C)cc4Cl)cn3n2)cc1 | inactive: 71%
O=S(=O)(c1ccc(Br)cc1)c1nnn2c1nc(Nc1cccc(C(F)(F)F)c1)c1sccc12 | inactive: 74%
CN1CCSc2ccc(C(=O)NCc3ccccc3F)cc21 | inactive: 134%
CCC1CCCCN1C(=O)/C=C/c1ccccc1Cl (stereo not given) | inactive: 89%
O=C(OCC1CCCO1)c1ccc2c(c1)N(Cc1cccc(Cl)c1)C(=O)c1ccccc1S2(=O)=O (stereo not given) | inactive: 70%
Cc1ccc(NC(=O)NCCOCCn2c(=O)oc3ccccc32)cc1F | inactive: 89%
O=C(Nc1nnc(N2CCCCCC2)s1)Nc1ccccc1C(F)(F)F | inactive: 80%
CCC(Sc1nc2ccccc2c2nc(CCc3c(C)n[nH]c3C)nn12)C(=O)Nc1ccc(OC)cc1 (stereo not given) | inactive: 96%
Cc1cccc(-n2c(CCN3C(=O)c4ccccc4C3=O)nc3ccccc3c2=O)n1 | inactive: 87%
COc1cc(C(=O)Nc2nc3c(s2)Cc2c(Br)ccc(OC)c2-3)cc(OC)c1OC | active: 36%
COc1ccc(Cl)cc1NC(=O)CSc1c2c(nc3ccccc13)CCC2 | inactive: 62%
CCN(c1ccccc1)S(=O)(=O)c1ccc(NC(=O)c2cc(=O)c3cc(C)ccc3o2)cc1 | inactive: 60%
O=C(c1ccc2c(c1)N(Cc1ccc(F)cc1)C(=O)c1ccccc1S2=O)N1CCOCC1 (stereo not given) | inactive: 89%

Compound | survival
COc1ccc(NC(=O)CS(=O)CC(=O)Nc2cccc(F)c2)cc1 (stereo not given) | inactive: 98%
CC(=O)NC(Cc1cccc(C)c1)C(=O)NC1CCN(c2nc(C)cc(C)c2C#N)CC1 (stereo not given) | inactive: 97%
CCOc1ccc(Cn2c(CNS(=O)(=O)c3c(C)cc(C)cc3C)nc3cccnc32)cc1 | inactive: 60%
Cc1nnc(NC(=O)CSc2nccn2-c2ccc(Cl)cc2)s1 | inactive: 104%
CCC(C)n1c(SCc2ccc(C(C)(C)C)cc2)nc2ccsc2c1=O (stereo not given) | inactive: 81%
CCn1c(=O)sc2cc(NC(=O)c3cccc(OC)c3)ccc21 | inactive: 71%
COc1ccc(C2CC(=O)c3c(C)nc(N4CCN(C=O)CC4)nc3C2)c(OC)c1 (stereo not given) | inactive: 77%
Cc1ccc2[nH]c(=O)c(CN(C(=O)NC3CCCCC3)C3CCCCC3)cc2c1 | inactive: 80%
CCN1CCN(c2nnc(-n3cccc3C(=O)Nc3cccc(OC)c3)s2)CC1 | inactive: 105%
CCN(CC)C(=O)C1CCN(S(=O)(=O)c2ccc(C)cc2)CC1 | inactive: 102%
O=C(Cn1ccn(-c2ccc(F)c(F)c2)c(=O)c1=O)c1ccc(F)cc1 | inactive: 82%
CCOC(=O)CC(=O)CSc1nc2ccccc2c(=O)n1-c1ccc(C(=O)NCCOC)cc1 | inactive: 102%
N#Cc1c(NC(=O)C(F)(F)F)oc(-c2ccccc2)c1-c1ccccc1 | active: 12%
COC(=O)c1ccc(C(=O)OC)c(NC(=O)N2CC3CCCN3c3ccccc32)c1 (stereo not given) | inactive: 77%
O=C(CC1NCCNC1=O)Nc1ccccc1F (stereo not given) | inactive: 99%
CCOC(=O)c1c(-c2ccc(C)cc2)csc1NC(=O)c1cc(=O)c2cc(Cl)ccc2o1 | inactive: 116%
CCOc1ccccc1NC(=O)CSc1nc2c([nH]c3ccccc32)c(=O)n1-c1ccccc1 | inactive: 60%
NC(=O)CSc1nsc(SCC(N)=O)n1 | inactive: 94%
O=C(CCC1CCCC1)Nc1ccc2c(c1)OCO2 | inactive: 101%
Cc1ccc(OCc2nc(-c3ccc(C(=O)N4CCN(c5cc(Cl)ccc5C)CC4)cc3)oc2C)cc1 | inactive: 76%
O=S(=O)(c1ccccc1)c1nc(-c2cccs2)oc1SCc1ccccc1Cl | inactive: 60%
CCc1nn(Cc2cccc(F)c2)c(=O)c2cc3cc(C)ccc3n12 | active: 40%
Cc1cccc(NC2=NCC(=O)N2Cc2ccccc2)c1 | inactive: 89%

Compound | survival
O=C(NCc1ccccc1)c1nc[nH]c1C(=O)NCc1ccccc1 | inactive: 87%
CCC(C)NC(=O)Cn1c(=O)n(-c2ccc(Cl)c(Cl)c2)c(=O)c2c(C)c(C(=O)N(CC)CC)sc21 (stereo not given) | inactive: 58%
Cc1ccc(-n2ncc(C(=O)N3CCN(c4ccccn4)CC3)c2C2CCN(C(=O)OC(C)(C)C)CC2)cc1 | inactive: 81%
Cc1ccc(NC(=O)c2cc(S(=O)(=O)N3CCCc4ccccc43)ccc2F)cc1F | inactive: 69%
COC(=O)c1ccccc1NC(=O)Cn1c(=O)nc(-c2ccccc2)c2cc(Cl)ccc21 | inactive: 90%
COc1ccc(CN(C(=O)c2cc3sccc3n2C)C2CC(C)(C)NC(C)(C)C2)cc1 | inactive: 79%
CCOC(=O)c1cc(-c2ccccc2)n(-c2cccc(C(=O)Nc3cccc(C)c3)c2)c1C | inactive: 117%
Cc1ccc2nc(COc3cccc(NC(=O)COc4ccccc4F)c3)cc(=O)n2c1 | inactive: 124%
O=C(C1CC1)N1CCc2cc(Br)cc(S(=O)(=O)N3CCN(c4cccc(Cl)c4)CC3)c21 | inactive: 62%
Cc1ccc(CSc2ccc3nnc(CCNS(=O)(=O)c4ccc(C)cc4)n3n2)cc1 | inactive: 73%
Cc1cccc(OCC(=O)OCc2cc(=O)n3nc(-c4cccs4)sc3n2)c1 | inactive: 96%
NNC(=O)c1ccc2[nH]c3c(c2c1)CCCC3 | inactive: 84%
c1ccc(CCN2CNc3nc4ccccc4n3C2)cc1 | inactive: 76%
Cc1cccc(Cn2cc(S(=O)(=O)c3ccc(Cl)cc3)c(=O)c3cc4c(cc32)OCO4)c1 | inactive: 79%
CC(=O)c1ccc(NC(=O)c2ccc(NC(=O)CCS(=O)(=O)c3cccs3)cc2)cc1 | inactive: 69%
CCn1c(Cc2ccccc2)nnc1SCC(=O)N1CCCCC1C (stereo not given) | inactive: 99%
Cn1c(=O)c2c(SCC(=O)NCC3CCCO3)nc(-c3cccc(F)c3)nc2n(C)c1=O (stereo not given) | inactive: 87%
O=C(c1ccco1)N1CCN(C(=O)C2CCCN(S(=O)(=O)Cc3ccccc3)C2)CC1 (stereo not given) | inactive: 85%
CS(=O)(=O)N1CCC(n2c(C(F)(F)F)nc3cccnc32)CC1 | active: 47%
Cc1cccc(OCCSc2nc3ccc(NC(=O)c4cccs4)cc3s2)c1 | inactive: 61%
Cc1cccc(C)c1Nc1c(-c2cccs2)nc2ncccn12 | inactive: 76%
